Test results taken from the supplement of paper PMC3334620.
Whole data set: some 33,000 sequences, median “E-score (-0.5 to 0.5)” near -0.036, cut for the highest 2% near 0.37. The list shows a part of the results.

Molecular target: T1, Yer064c (UniProt P40041)
T1 sequence: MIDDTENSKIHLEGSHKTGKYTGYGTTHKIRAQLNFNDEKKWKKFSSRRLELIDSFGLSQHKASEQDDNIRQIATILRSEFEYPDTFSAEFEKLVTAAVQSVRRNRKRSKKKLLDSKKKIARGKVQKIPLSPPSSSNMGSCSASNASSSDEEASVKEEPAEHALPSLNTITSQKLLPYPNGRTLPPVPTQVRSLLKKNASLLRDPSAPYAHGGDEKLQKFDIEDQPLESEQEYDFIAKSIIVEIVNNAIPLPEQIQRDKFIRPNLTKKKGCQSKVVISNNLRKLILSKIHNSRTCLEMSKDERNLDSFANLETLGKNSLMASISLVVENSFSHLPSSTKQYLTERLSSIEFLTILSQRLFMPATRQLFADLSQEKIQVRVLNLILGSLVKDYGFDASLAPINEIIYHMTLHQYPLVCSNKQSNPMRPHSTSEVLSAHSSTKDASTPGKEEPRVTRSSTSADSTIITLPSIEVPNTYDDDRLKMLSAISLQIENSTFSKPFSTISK
Test: PBM E-score (8-mer binding enrichment) (E-score (-0.5 to 0.5)); higher = stronger / more preferred TF binding; most listed sequences are background and not binding sites
Conditions: protein concentration: 200 nM; construct: GST-full length
Experimental: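 Universal 'all 10-mer' protein binding microarrays (Agilent AMADID 015681) probed with GST-tagged S. cerevisiae TFs (full-length or DBD) made by in vitro transcription/translation (PURExpress), about 100-200 nM. Bound TF was detected with fluorescent anti-GST. Each ungapped 8-mer (which stands for itself and its reverse complement) is scored by the PBM enrichment score (E-score), a modified Wilcoxon-Mann-Whitney statistic from -0.5 to +0.5, computed with the Universal PBM Analysis Suite. Scale: above 0.35 generally sequence-specific binding.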

Point of comparison: CTGTGGCC, “PBM E-score” value -0.373. Against it:
- GGGCCCAC — higher, -0.299
- CGTCGCTC — higher, -0.159
- AATTTGAT — higher, 0.0813
- CGGGAGTA — higher, -0.0367
- GCAACAGC — higher, -0.317
- ACTCGGAA — higher, 0.252
- ACAACCGC — higher, 0.0153
- TTCAGCAA — higher, -0.00768
- CCCCAATC — higher, -0.0356
- TATCGGCA — higher, -0.167
- ACGCACGG — higher, -0.192
- GACTCATC — higher, 0.478
- CAGGTGCC — higher, -0.246
- ATTCGGTA — higher, 0.0621
- AGATGGAC — higher, 0.117
- GTCGATAA — higher, 0.00667
- ATGGGGGA — higher, -0.339
- CAACTTGA — higher, 0.105
- AAAGAAGT — higher, 0.14
- ACTGAGCA — higher, 0.106
- GAAGATTA — higher, 0.264
- AACGAATT — higher, -0.00325
- TCATCACA — higher, 0.119
- CCAACAAA — higher, -0.069
- ACACAGCT — higher, 0.0534
- TAGGTGCA — higher, 0.0692
- ACAGGAAG — higher, -0.155
- GAAGAACA — higher, -0.0498
- AAACCTAA — higher, -0.0152
- CCCAGCAA — higher, -0.0862
- GCTAACCC — higher, -0.0154
- GTCAAGGA — higher, 0.0558
- CGAGAGGA — higher, -0.0732
- ATAGCTAG — higher, -0.164
- CGACGGTA — higher, -0.0858
- CATTGCAG — higher, 0.0512
- GATTTCTA — higher, 0.149
- AGTTGACC — higher, 0.0517
- CCAGAGAC — higher, 0.0381
- ACGAATGG — higher, 0.0198
- AATGCGCT — higher, -0.195
- CGCAACCA — higher, -0.14
- CTTTGGGC — higher, -0.152
- CAACGCTA — higher, -0.258
- GATGTAGA — higher, 0.0882
- GGCACCAA — higher, -0.273
- ATTCGGAC — higher, 0.143
- ATCGGTCG — higher, -0.0842
- ACTAATAT — higher, 0.198
- AACGCAAC — higher, 0.0324
- AAAGCTCG — higher, -0.059
- GTAAATGA — higher, 0.248
- GGTCTACA — higher, 0.0785
- AATTACAT — higher, 0.0215
- CGGGACAA — higher, -0.248
- CAGATGGC — higher, 0.122
- ACATGAAA — higher, 0.0592
- CATATGGC — higher, 0.0569
- GTTGGTGA — higher, 0.115
- ATTTGAGG — higher, -0.0184
- GGTCACTA — higher, -0.234
- CAGGGAAC — higher, -0.175
- AATACGCT — higher, -0.136
- AATTCAGT — higher, 0.0739
- AAGAACCA — higher, -0.0337
- AAATGTGC — higher, -0.207
- GGCTCCGA — higher, -0.0603
- TGCGACCA — higher, -0.16
- CCGTGTGA — higher, 0.0576
- CGTGCAGA — higher, -0.209
- CATTCGAG — higher, 0.0274
- AATTAAGG — higher, -0.0727
- TCTCGGAA — higher, 0.113
- AGCCAAAG — higher, -0.0269
- CCATATAA — higher, -0.0141
- AGCGTGCG — higher, -0.0137
- CCGCCCTA — higher, -0.113
- CATTTAGC — higher, -0.0354
- GTAGAAGA — higher, 0.003
- AATACGAA — higher, -0.0287
- CACAACCC — higher, -0.0187
- AACAGCTA — higher, -0.109
- GAAGAGAC — higher, 0.115
- GCAAAGGC — higher, -0.15
- CACATAAG — higher, 0.142
- ATTAGAAA — higher, 0.0106
- AGTATACT — higher, 0.238
- CACCGGGA — higher, -0.0854
- GAGCGTAA — higher, 0.0724
- AGCCAACT — higher, -0.107
- ACGCCGAT — higher, -0.221
- AACTGATT — higher, 0.229
- GGAAGACC — higher, -0.167
- GACGAGTC — higher, 0.408
- CCGTTACG — higher, -0.124
- AGCGTAAC — higher, 0.027
- AAAGTTGG — higher, 0.0828
- AAAATGAT — higher, 0.197
- GGTGCCAC — higher, -0.31
- TAATGATA — higher, 0.0674
- CGCTGCGA — higher, 0.095
- ACGCTCTA — higher, -0.153
- CTTTCCCA — higher, -0.0754
- AGTGGGTC — higher, -0.203
- CTCCGTCA — higher, -0.0416
- AGCGCAAG — higher, -0.067
- CTCAATCA — higher, 0.402
- CCTGGCCC — higher, -0.194
- AGGCACCT — higher, -0.264
- AATCTGCT — higher, 0.0664
- AGGTTGCC — higher, -0.287
- CTAAGTAA — higher, 0.204
- ACGTAACG — higher, -0.0991
- GACCGTGA — higher, 0.0756
- AAAGCAAA — higher, -0.00787
- CACCCATC — higher, 0.102
- CAATTAAG — higher, 0.056
- AAACAGGT — higher, -0.0996
- AGCTGTTC — higher, -0.216
- AATCTCCC — higher, 0.139
- AAGTTCAA — higher, -0.00078
- AATCAGGT — higher, 0.378
- TCAACTCA — higher, 0.165
- GAGCCAAA — higher, -0.1
- AGCTACCA — higher, 0.0223
- CTATAAAG — higher, -0.00177
- GATTTGCC — higher, 5e-05
- CCCTTTGA — higher, -0.0843
- GCAGCCCA — higher, -0.174
- AAACCTAG — higher, -0.118
- GCCGCACA — higher, -0.105
- ATATAACC — higher, 0.0125
- AAAATATA — higher, 0.102
- AGTTTGGA — higher, 0.144
- ATGCAAGG — higher, -0.283
- GCCAGGAC — higher, -0.0545
- TAGGGACA — higher, -0.217
- AAGAAGGG — higher, -0.266
- GGAAGAAA — higher, -0.0755
- GAAGCGCA — higher, -0.306
- GCCTCTAC — higher, -0.262
- ATAAGTTA — higher, 0.112
- GGTAATAC — higher, -0.129
- CCAGCAGC — higher, -0.19
- AGGGTCAA — higher, -0.0216
- ACCGATAA — higher, 0.0165
- GTCGTAAC — higher, 0.106
- AGCCCTTA — higher, -0.0352
- ACTAGCAG — higher, 0.2
- CTGTAGTC — higher, 0.416
- AGCTCTAC — higher, -0.318
- GAATTCCC — higher, -0.184
- ATACTAAG — higher, 0.0905
- CCTTGCCA — higher, 0.184
- ATGCTGCC — higher, -0.0705
- CCGAGAAA — higher, -0.213
- CTCAGTCC — higher, 0.255
- CAACCATA — higher, 0.192
- CGAATCAA — higher, 0.272
- CGCGTGCA — higher, -0.186
- CCGTGTAG — higher, 0.0473
- GCGTAAGC — higher, -0.312
- CAGCTATA — higher, 0.0648
- ATGCATAG — higher, 0.0262
- CGCTAAGA — higher, -0.0449
- GGGAGATA — higher, -0.271
- TCATCGAA — higher, 0.258
- AGTATGAT — higher, 0.346
- AGAGAATC — higher, 0.12
- CGAACACA — higher, 0.0329
- CCGATCGC — higher, -0.0813
